# Measurements as given in ChEMBL document CHEMBL1156829.
# The full ranking holds about 5,400 compounds; the median of “IFI” is about 2, and the highest 2% start at about 22. The list shows a part of the results.
# Experiment: NOVARTIS: Inhibition Frequency Index (IFI) - the number of HTS assays where a compound showed > 50% inhibition/induction, expressed as a percentage of the number of assays in which the compound was tested.
# Type: functional
row,SMILES,IFI [%]
1,CCCCCCN(C(=O)c1ccc2ccccc2c1)C(CC)c1nc2ccccc2c(=O)n1-c1ccccc1OC (configuration not stated),1.89
2,CCOC(=O)C1=CN(c2cc(C)ccc2C)C=C(C(=O)OCC)C1c1ccccc1OCC,2.35
3,FC(F)(F)c1cccc(NC(=S)N2CCCC2c2ccccc2Cl)c1 (configuration not stated),3.64
4,CCOC(=O)CCC(=O)Oc1ccccc1-c1nc2ccccn2c1NC(C)(C)CC(C)(C)C,2.83
5,CCOC(=O)c1c(NC(=O)Cc2ccc([N+](=O)[O-])cc2)sc2c1CCCC2,0
6,NCCCCCCNC(=S)Nc1ccccc1,0
7,CC(C)C[C@@H]1NC(=O)[C@@H](CC(C)C)NC(=O)[C@H](C(C)C)NC(=O)[C@H]2CSSC[C@@H](NC1=O)C(=O)N2,25.9
8,O=C(NN=Cc1ccc(O)cc1O)c1ccncc1,2.73
9,CCN1/C(=C/C=C/c2sc3ccccc3[n+]2CC)Sc2ccccc21,21.7
10,O=C(c1cnn(-c2ccccc2)c1C(F)(F)F)N1CCN(c2ccnc3cc(Cl)ccc23)CC1,6.45
11,Cc1ccc(-c2c3c(nc4sc(C(=O)Nc5cccc(C)c5)c(N)c24)CCC3)cc1,4.71
12,Cc1oc2c(c1C(=O)NCCCn1ccnc1)C(=O)c1ccccc1C2=O,24.3
13,CC1(C)C=C(C23C=CC(C2)C2C(=C4CC(C)(C)NC(C)(C)C4)C=CC23)CC(C)(C)N1 (configuration not stated),6.15
14,CCN(CC)CCCNC(=S)N(Cc1ccccc1)Cc1cc2cc(C)c(Cl)cc2[nH]c1=O,16.4
15,CC1CCN(CCCNc2ccc(C(=O)Nc3ccc(C(F)(F)F)cc3)cc2[N+](=O)[O-])CC1,0
16,CCCCN(C)CCCNC(=O)c1ccc(Cl)c(NC(=O)Nc2ccc(Cl)c(Cl)c2)c1,2.94
17,OCCNc1nc(Nc2ccc(Cl)c(Cl)c2)nc2ccccc12,0
18,CCc1ccc(-n2nnc(C(=O)Nc3ccccc3Cl)c2C)cc1,2.86
19,CC(=O)N1CCC(N(C(=O)Nc2c(F)cccc2F)C(C)C)CC1,0
20,CSC1=NC(=Nc2ccccc2C)C2(CCC(C(C)(C)C)CC2)N1c1ccc(O)cc1 (configuration not stated),0
21,Cc1sc2c(c1C)CN(Cc1ccco1)CN2C(=O)c1ccco1,0
22,COc1ccc(Cn2c(-c3ccc(Cl)cc3)c[n+]3ccccc23)cc1,0
23,O=C1NN=C2C1=NC1(CCCCC1)Cc1ccccc12,8.33
24,CN(CCCNc1ccnc2cc(Cl)ccc12)C(=O)c1ccc(Cl)c([N+](=O)[O-])c1,1.87
25,O=C(Nc1ccc(CC2=NCCCN2)cc1)c1ccc(C(=O)Nc2ccc(CC3=NCCCN3)cc2)cc1,1.77
26,CN(C)c1cc(NC(=O)Nc2ccccc2)c2ccccc2n1,2.26
27,CCC(=O)Nc1cc(NC(=O)CSc2nc(C)c(CC)c(O)n2)ccc1C,5.46
